# According to the supplement of paper PMC8728848:
# The other results are listed elsewhere or left out.
# B1: CPA (Cicer arietinum) (protein)
# chain: MAFSYLNLVLVTLTTLFFLQTTKVKSQKSVSFHITNFTISRPSITLQGTAEFLPNVLLLNDIEHPVFVVGRALYSKPITLWNNKTGKVASFVTSFTFDVQDLKKTVPGHGLVFFLAPSGSEIPFSSDGGNLGVVDGKNAFNRFVGVEFDNFVNSWDPKYSHVGINVNSLISTKTVKWNRVSGELVKVSIVYDSVSTTLTVIVTYKNGQISILSQLVDLKAVLPDTVNIGFSASTTLVSPRQLHNIHSWSFTSTFET
# How the values were obtained:
# Test in all cases: glycan array binding signal (z-score within array); higher = stronger binding
# Settings in all cases: glycan notation: IUPAC condensed, linker removed
# [1] = target: Gal(b1-4)GlcNAc(b1-2)Man(a1-3)[Gal(b1-4)GlcNAc(b1-2)Man(a1-6)][Gal(b1-4)GlcNAc(b1-4)]Man(b1-4)GlcNAc(b1-4)[Fuc(a1-6)]GlcNAc
# In short: (§1)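 Glycan array data were curated from 3228 arrays in the Consortium for Functional Glycomics database and kept only where the protein sequence was available. Glycan names were converted to IUPAC-condensed notation, and columns mapping to the same glycan were averaged. The binding signal is a within-array Z-score, averaged across arrays of the same protein sequence at different concentrations or buffers and across linkers. Negative Z-scores can be read as non-binding.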
# [2] = target: Gal(b1-4)GlcNAc(b1-2)Man(a1-3)[Gal(b1-4)GlcNAc(b1-2)Man(a1-6)][GlcNAc(b1-4)]Man(b1-4)GlcNAc(b1-4)[Fuc(a1-6)]GlcNAc
# In short: as §1
# [3] = target: Gal(b1-4)GlcNAc(b1-2)Man(a1-3)[GlcNAc(b1-2)Man(a1-6)]Man(b1-4)GlcNAc(b1-4)GlcNAc
# In short: as §1
# [4] = target: Gal(b1-4)GlcNAc(b1-2)Man(a1-3)[GlcNAc(b1-4)][Gal(b1-4)GlcNAc(b1-2)Man(a1-6)]Man(b1-4)GlcNAc(b1-4)GlcNAc
# In short: as §1
# [5] = target: Gal(b1-4)GlcNAc(b1-2)Man(a1-3)[Man(a1-6)]Man(b1-4)GlcNAc(b1-4)GlcNAc
# In short: as §1
# [6] = target: Gal(b1-4)GlcNAc(b1-2)Man(a1-6)Man(b1-4)GlcNAc(b1-4)GlcNAc
# In short: as §1
# [7] = target: Gal(b1-4)GlcNAc(b1-2)Man(a1-6)[GlcNAc(b1-2)Man(a1-3)]Man(b1-4)GlcNAc(b1-4)GlcNAc
# In short: as §1
# [8] = target: Gal(b1-4)GlcNAc(b1-2)Man(a1-6)[Man(a1-3)]Man(b1-4)GlcNAc(b1-4)GlcNAc
# In short: as §1
# [9] = target: Gal(b1-4)GlcNAc(b1-2)[Gal(b1-4)GlcNAc(b1-4)]Man(a1-3)[Gal(b1-4)GlcNAc(b1-2)Man(a1-6)]Man(b1-4)GlcNAc(b1-4)GlcNAc
# In short: as §1
# [10] = target: Gal(b1-4)GlcNAc(b1-2)[Gal(b1-4)GlcNAc(b1-4)]Man(a1-3)[Gal(b1-4)GlcNAc(b1-2)[Gal(b1-4)GlcNAc(b1-6)]Man(a1-6)]Man(b1-4)GlcNAc(b1-4)GlcNAc
# In short: as §1
# [11] = target: Gal(b1-4)GlcNAc(b1-2)[Gal(b1-4)GlcNAc(b1-4)]Man(a1-3)[GlcNAc(b1-4)][Gal(b1-4)GlcNAc(b1-2)Man(a1-6)]Man(b1-4)GlcNAc(b1-4)GlcNAc
# In short: as §1
# [12] = target: Gal(b1-4)GlcNAc(b1-2)[Gal(b1-4)GlcNAc(b1-4)]Man(a1-3)[GlcNAc(b1-4)][Gal(b1-4)GlcNAc(b1-2)[Gal(b1-4)GlcNAc(b1-6)]Man(a1-6)]Man(b1-4)GlcNAc(b1-4)GlcNAc
# In short: as §1
# [13] = target: Gal(b1-4)GlcNAc(b1-2)[Gal(b1-4)GlcNAc(b1-6)]Man(a1-6)[Gal(b1-4)GlcNAc(b1-2)Man(a1-3)]Man(b1-4)GlcNAc(b1-4)GlcNAc
# In short: as §1
# [14] = target: Gal(b1-4)GlcNAc(b1-2)[Gal(b1-4)GlcNAc(b1-6)]Man(a1-6)[Gal(b1-4)GlcNAc(b1-2)Man(a1-3)]Man(b1-4)GlcNAc(b1-4)[Fuc(a1-6)]GlcNAc
# In short: as §1
# [15] = target: Gal(b1-4)GlcNAc(b1-2)[Gal(b1-4)GlcNAc(b1-6)]Man(a1-6)[GlcNAc(b1-4)][Gal(b1-4)GlcNAc(b1-2)Man(a1-3)]Man(b1-4)GlcNAc(b1-4)GlcNAc
# In short: as §1
# [16] = target: Gal(b1-4)GlcNAc(b1-2)[Gal(b1-4)GlcNAc(b1-6)]Man(a1-6)[GlcNAc(b1-4)][Gal(b1-4)GlcNAc(b1-2)[Gal(b1-4)GlcNAc(b1-4)]Man(a1-3)]Man(b1-4)GlcNAc(b1-4)[Fuc(a1-6)]GlcNAc
# In short: as §1
# [17] = target: Gal(b1-4)GlcNAc(b1-3)Gal(b1-3)GalNAc
# In short: as §1
# [18] = target: Gal(b1-4)GlcNAc(b1-3)Gal(b1-3)GlcNAc
# In short: as §1
# [19] = target: Gal(b1-4)GlcNAc(b1-3)Gal(b1-4)Glc
# In short: as §1
binder,measurement,setting,value
B1,glycan array binding signal (z-score),[1],-0.529
same,glycan array binding signal (z-score),[2],-0.491
same,glycan array binding signal (z-score),[3],0.069
same,glycan array binding signal (z-score),[4],-0.444
same,glycan array binding signal (z-score),[5],-0.28
same,glycan array binding signal (z-score),[6],-0.655
same,glycan array binding signal (z-score),[7],-0.609
same,glycan array binding signal (z-score),[8],-0.041
same,glycan array binding signal (z-score),[9],-0.562
same,glycan array binding signal (z-score),[10],-0.088
same,glycan array binding signal (z-score),[11],-0.483
same,glycan array binding signal (z-score),[12],-0.371
same,glycan array binding signal (z-score),[13],0.586
same,glycan array binding signal (z-score),[14],-0.772
same,glycan array binding signal (z-score),[15],-0.085
same,glycan array binding signal (z-score),[16],0.092
same,glycan array binding signal (z-score),[17],-0.544
same,glycan array binding signal (z-score),[18],-0.722
same,glycan array binding signal (z-score),[19],-0.329
